# Results from the supplement of paper PMC8728848.
# Some of the results follow.
# B1: MAL-II (Maackia amurensis), P93248 (protein)
# chain: ATSNSKPTQVLLATFLTFFFLLLNNVNSSDELSFTINNFVPNEADLLFQGEASVSSTGVLQLTRVENGQPQQYSVGRALYAAPVRIWDNTTGSVASFSTSFTFVVKAPNPTITSDGLAFFLAPPDSQIPSGRVSKYLGLFNNSNSDSSNQIVAVEFDTYFGHSYDPWDPNYRHIGIDVNGIESIKTVQWDWINGGVAFATITYLAPNKTLIASLVYPSNQTSFIVAASVDLKEILPEWVRVGFSAATGYPTQVETHDVLSWSFTSTLEANSDAATENNVHIARYTA
# How the values were obtained:
# Assay in all cases: glycan array binding signal (z-score within array); higher = stronger binding
# Settings in all cases: glycan notation: IUPAC condensed, linker removed
# [1] = target: Gal(b1-3)GalNAc(b1-3)Gal(a1-4)Gal(b1-4)Glc
# Method in brief: (§1)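 The Consortium for Functional Glycomics database supplied 3228 glycan arrays, of which those lacking an available protein sequence were dropped. The binding signal, a within-array Z-score, was averaged across arrays of the same protein sequence and across linkers. Negative scores can be read as non-binding.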
# [2] = target: Gal(b1-3)GalNAc(b1-4)Gal(b1-4)Glc
# Method in brief: as §1
# [3] = target: Gal(b1-3)GalNAc(b1-4)[Neu5Ac(a2-3)]Gal(b1-4)Glc
# Method in brief: as §1
# Gal(b1-3)GlcNAc = target: Gal(b1-3)GlcNAc
# Method in brief: as §1
# [4] = target: Gal(b1-3)GlcNAc(a1-3)Gal(b1-4)GlcNAc
# Method in brief: as §1
# [5] = target: Gal(b1-3)GlcNAc(a1-6)Gal(b1-4)GlcNAc
# Method in brief: as §1
# Gal(b1-3)GlcNAc(b1-2)Man = target: Gal(b1-3)GlcNAc(b1-2)Man
# Method in brief: as §1
# [6] = target: Gal(b1-3)GlcNAc(b1-2)Man(a1-3)[Gal(b1-3)GlcNAc(b1-2)Man(a1-6)]Man(b1-4)GlcNAc(b1-4)GlcNAc
# Method in brief: as §1
# [7] = target: Gal(b1-3)GlcNAc(b1-2)Man(a1-3)[Gal(b1-3)GlcNAc(b1-2)Man(a1-6)]Man(b1-4)GlcNAc(b1-4)[Fuc(a1-6)]GlcNAc
# Method in brief: as §1
# [8] = target: Gal(b1-3)GlcNAc(b1-2)Man(a1-3)[GlcNAc(b1-4)][Gal(b1-3)GlcNAc(b1-2)Man(a1-6)]Man(b1-4)GlcNAc(b1-4)GlcNAc
# Method in brief: as §1
# [9] = target: Gal(b1-3)GlcNAc(b1-2)[Gal(b1-3)GlcNAc(b1-6)]Man(a1-6)[Gal(b1-3)GlcNAc(b1-2)Man(a1-3)]Man(b1-4)GlcNAc(b1-4)GlcNAc
# Method in brief: as §1
# [10] = target: Gal(b1-3)GlcNAc(b1-3)Gal(b1-3)GlcNAc
# Method in brief: as §1
# [11] = target: Gal(b1-3)GlcNAc(b1-3)Gal(b1-4)Glc
# Method in brief: as §1
# [12] = target: Gal(b1-3)GlcNAc(b1-3)Gal(b1-4)GlcNAc
# Method in brief: as §1
# [13] = target: Gal(b1-3)GlcNAc(b1-3)Gal(b1-4)GlcNAc(b1-2)Man(a1-3)[Gal(b1-3)GlcNAc(b1-3)Gal(b1-4)GlcNAc(b1-2)Man(a1-6)]Man(b1-4)GlcNAc(b1-4)GlcNAc
# Method in brief: as §1
# [14] = target: Gal(b1-3)GlcNAc(b1-3)Gal(b1-4)GlcNAc(b1-2)[Gal(b1-3)GlcNAc(b1-3)Gal(b1-4)GlcNAc(b1-6)]Man(a1-6)[Gal(b1-3)GlcNAc(b1-3)Gal(b1-4)GlcNAc(b1-2)Man(a1-3)]Man(b1-4)GlcNAc(b1-4)[Fuc(a1-6)]GlcNAc
# Method in brief: as §1
# [15] = target: Gal(b1-3)GlcNAc(b1-3)Gal(b1-4)GlcNAc(b1-3)Gal(b1-4)GlcNAc(b1-2)[Gal(b1-3)GlcNAc(b1-3)Gal(b1-4)GlcNAc(b1-3)Gal(b1-4)GlcNAc(b1-6)]Man(a1-6)[Gal(b1-3)GlcNAc(b1-3)Gal(b1-4)GlcNAc(b1-3)Gal(b1-4)GlcNAc(b1-2)Man(a1-3)]Man(b1-4)GlcNAc(b1-4)[Fuc(a1-6)]GlcNAc
# Method in brief: as §1
# [16] = target: Gal(b1-3)GlcNAc(b1-3)Gal(b1-4)GlcNAc(b1-6)[Gal(b1-3)GlcNAc(b1-3)]Gal(b1-4)Glc
# Method in brief: as §1
# [17] = target: Gal(b1-3)GlcNAc(b1-3)Gal(b1-4)[Fuc(a1-3)]GlcNAc
# Method in brief: as §1
# [18] = target: Gal(b1-3)GlcNAc(b1-3)Gal(b1-4)[Fuc(a1-3)]GlcNAc(b1-6)[Gal(b1-3)GlcNAc(b1-3)]Gal(b1-4)Glc
# Method in brief: as §1
# [19] = target: Gal(b1-3)GlcNAc(b1-3)GalNAc
# Method in brief: as §1
# [20] = target: Gal(b1-3)GlcNAc(b1-6)Gal(b1-4)GlcNAc
# Method in brief: as §1
# [21] = target: Gal(b1-3)GlcNAc(b1-6)GalNAc
# Method in brief: as §1
# [22] = target: Gal(b1-3)GlcNAc(b1-6)[Gal(b1-3)]GalNAc
# Method in brief: as §1
# Gal(b1-3)GlcNAc6S = target: Gal(b1-3)GlcNAc6S
# Method in brief: as §1
# [23] = target: Gal(b1-3)[Fuc(a1-4)]GlcNAc
# Method in brief: as §1
# [24] = target: Gal(b1-3)[Fuc(a1-4)]GlcNAc(b1-2)Man
# Method in brief: as §1
# [25] = target: Gal(b1-3)[Fuc(a1-4)]GlcNAc(b1-2)Man(a1-3)[Gal(b1-3)[Fuc(a1-4)]GlcNAc(b1-2)Man(a1-6)]Man(b1-4)GlcNAc(b1-4)GlcNAc
# Method in brief: as §1
# [26] = target: Gal(b1-3)[Fuc(a1-4)]GlcNAc(b1-2)Man(a1-3)[Gal(b1-3)[Fuc(a1-4)]GlcNAc(b1-2)Man(a1-6)]Man(b1-4)GlcNAc(b1-4)[Fuc(a1-6)]GlcNAc
# Method in brief: as §1
# [27] = target: Gal(b1-3)[Fuc(a1-4)]GlcNAc(b1-3)Gal(b1-3)[Fuc(a1-4)]GlcNAc
# Method in brief: as §1
# [28] = target: Gal(b1-3)[Fuc(a1-4)]GlcNAc(b1-3)Gal(b1-4)GlcNAc
# Method in brief: as §1
# [29] = target: Gal(b1-3)[Fuc(a1-4)]GlcNAc(b1-3)Gal(b1-4)[Fuc(a1-3)]GlcNAc
# Method in brief: as §1
# [30] = target: Gal(b1-3)[Fuc(a1-4)]GlcNAc(b1-6)GalNAc
# Method in brief: as §1
# [31] = target: Gal(b1-3)[GlcNAc(b1-6)]GalNAc
# Method in brief: as §1
# [32] = target: Gal(b1-3)[Neu5Ac(a2-6)]GalNAc
# Method in brief: as §1
# [33] = target: Gal(b1-3)[Neu5Ac(a2-6)]GlcNAc(b1-4)Gal(b1-4)Glc
# Method in brief: as §1
# [34] = target: Gal(b1-3)[Neu5Ac(a2-6)]GlcNAc(b1-6)Gal(b1-4)Glc
# Method in brief: as §1
binder,measurement,setting,value
B1,glycan array binding signal (z-score),[1],-0.154
same,glycan array binding signal (z-score),[2],-0.143
same,glycan array binding signal (z-score),[3],-0.2
same,glycan array binding signal (z-score),Gal(b1-3)GlcNAc,-0.213
same,glycan array binding signal (z-score),[4],-0.364
same,glycan array binding signal (z-score),[5],-0.194
same,glycan array binding signal (z-score),Gal(b1-3)GlcNAc(b1-2)Man,-0.189
same,glycan array binding signal (z-score),[6],-0.182
same,glycan array binding signal (z-score),[7],-0.093
same,glycan array binding signal (z-score),[8],-0.169
same,glycan array binding signal (z-score),[9],0.046
same,glycan array binding signal (z-score),[10],-0.172
same,glycan array binding signal (z-score),[11],-0.239
same,glycan array binding signal (z-score),[12],-0.203
same,glycan array binding signal (z-score),[13],-0.177
same,glycan array binding signal (z-score),[14],-0.334
same,glycan array binding signal (z-score),[15],0.068
same,glycan array binding signal (z-score),[16],-0.249
same,glycan array binding signal (z-score),[17],-0.234
same,glycan array binding signal (z-score),[18],-0.193
same,glycan array binding signal (z-score),[19],-0.226
same,glycan array binding signal (z-score),[20],-0.286
same,glycan array binding signal (z-score),[21],-0.274
same,glycan array binding signal (z-score),[22],-0.089
same,glycan array binding signal (z-score),Gal(b1-3)GlcNAc6S,-0.3
same,glycan array binding signal (z-score),[23],-0.215
same,glycan array binding signal (z-score),[24],-0.173
same,glycan array binding signal (z-score),[25],-0.217
same,glycan array binding signal (z-score),[26],-0.045
same,glycan array binding signal (z-score),[27],-0.22
same,glycan array binding signal (z-score),[28],-0.226
same,glycan array binding signal (z-score),[29],-0.209
same,glycan array binding signal (z-score),[30],0.689
same,glycan array binding signal (z-score),[31],-0.217
same,glycan array binding signal (z-score),[32],0.239
same,glycan array binding signal (z-score),[33],-0.202
same,glycan array binding signal (z-score),[34],-0.228
